Earlier results as cited in paper PMC10714828, “Proteomic analysis of anti-MRSA activity of caerin 1.1/1.9 in a murine skin infection model and their in vitro anti-biofilm effects against Acinetobacter baumannii” (Microbiology Spectrum, 2023).

Conditions: cited from earlier work
Source text: Naturally derived host defense peptides form the first line against bacteria, protozoa, fungi, and virus infection ([16], [17]). Antimicrobial peptides (AMPs) have the advantage of multiple functions, such as inhibition of bacteria adhesion, wide spectrum of bacterial killing, quorum sensing, and the ability to inhibit the production of extracellular polymeric substances by bacteria ([18]). In addition, AMPs produce less bacterial resistance than conventional antibiotics, and may show activities against MDR bacterial strains ([19]). More than 200 host defense peptides have been isolated and id ...

Substance	heat stability
GLFGVLGSIAKHVLPHVVPVIAEKL-NH2 [F3]	heat resistant
GLLSVLGSVAKHVLPHVVPVIAEHL-NH2 [F1]	heat resistant
